According to a collection of fitness landscapes (doi:10.1126/science.1257360):
Some of the results follow.

B1: PhoQ; a variant is named by its letters at X, in order, P23837 (parent)
chain: MKKLLRLFFPLSLRVRFLLATAAVVLVLSLAYGMVALIGYSVSFDKTTFRLLRGESNLFYTLAKWENNKLHVELPENIDKQSPTMTLIYDENGQLLWAQRDVPWLMKMIQPDWLKSNGFHEIEADVNDTSLLLSGDHSIQQQLQEVREDDDDAEMTHSVAVNVYPATSRMPKLTIVVVDTIPVELKSSYMVWSWFIYVLSANLLLVIPLLWVAAWWSLRPIEALAKEVRELEEHNRELLNPATTRELTSLVRNLNRLLKSERERYDKYRTTLTDLTHSLKTPLXXLQXXLRSLRSEKMSVSDAEPVMLEQISRISQQIGYYLHRASMRGGTLLSRELHPVAPLLDNLTSALNKVYQRKGVNISLDISPEISFVGEQNDFVEVMGNVLDNACKYCLEFVEISARQTDEHLYIVVEDDGPGIPLSKREVIFDRGQRVDTLRPGQGVGLAVAREITEQYEGKIVAGESMLGGARMEVIFGRQHSAPKDE

Variants of: B1
Assay: enrichment ratio after two sorts for PhoP signalling (ratio (wild type AVST 3.29)); higher = more functional
Details: with PhoP (E. coli)

| Variant | enrichment ratio |
| --- | --- |
| MISS | ≤ 0.25 |
| PFQK | ≤ 0.25 |
| EHKQ | ≤ 0.25 |
| VKNC | ≤ 0.25 |
| SPTE | ≤ 0.25 |
| VPEC | ≤ 0.25 |
| NQVM | ≤ 0.25 |
| PCCA | ≤ 0.25 |
| LNVN | ≤ 0.25 |
| RPNG | ≤ 0.25 |
| CFSH | ≤ 0.25 |
| TNSS | 13.1 |
| DYYL | ≤ 0.25 |
| ILGD | ≤ 0.25 |
| TLRQ | ≤ 0.25 |
| DSNY | ≤ 0.25 |
| LLGL | ≤ 0.25 |
| FNRW | ≤ 0.25 |
| DSNP | ≤ 0.25 |
| MEWA | 4.9 |
| HIQT | ≤ 0.25 |
| SAGY | 3.16 |
| DLLG | ≤ 0.25 |
| QSTP | ≤ 0.25 |
| CPSF | ≤ 0.25 |

| Variant | enrichment ratio |
| --- | --- |
| RWKS | ≤ 0.25 |
| WMDR | ≤ 0.25 |
| WQTH | ≤ 0.25 |
| YRDC | ≤ 0.25 |
| GGAC | ≤ 0.25 |
| QTGD | ≤ 0.25 |
| SCLG | 12.6 |
| LTRT | ≤ 0.25 |
| MMSF | ≤ 0.25 |
| FQYC | ≤ 0.25 |
| AHYK | ≤ 0.25 |
| LYNL | ≤ 0.25 |
| WFFL | ≤ 0.25 |
| KSPG | ≤ 0.25 |
| TYNC | 2.52 |
| PMLR | ≤ 0.25 |
| RARG | ≤ 0.25 |
| WVKC | ≤ 0.25 |
| ANRE | ≤ 0.25 |
| MEHN | ≤ 0.25 |
| HPAR | ≤ 0.25 |
| IYPS | ≤ 0.25 |
| DIYN | ≤ 0.25 |
| EMTI | ≤ 0.25 |
| VAKM | ≤ 0.25 |

| Variant | enrichment ratio |
| --- | --- |
| MSHA | ≤ 0.25 |
| HAGP | ≤ 0.25 |
| GGTD | ≤ 0.25 |
| ISGK | ≤ 0.25 |
| EYIR | ≤ 0.25 |
| YQAT | 0.465 |
| CLAW | ≤ 0.25 |
| NKED | ≤ 0.25 |
| PGVK | ≤ 0.25 |
| HNAA | ≤ 0.25 |
| SMAT | 7.92 |
| AMRE | ≤ 0.25 |
| FNSI | ≤ 0.25 |
| VCIA | ≤ 0.25 |
| LHDD | ≤ 0.25 |
| QEAY | 1.27 |
| NMML | ≤ 0.25 |
| KEHT | ≤ 0.25 |
| RTVN | ≤ 0.25 |
| PWER | ≤ 0.25 |
| YVMW | ≤ 0.25 |
| QYFP | ≤ 0.25 |
| ATMI | 19.9 |
| TCYG | 4.33 |
| KGDV | ≤ 0.25 |

| Variant | enrichment ratio |
| --- | --- |
| MKLN | ≤ 0.25 |
| THLS | 5.69 |
| IPEF | ≤ 0.25 |
| FTNA | ≤ 0.25 |
| MGEG | ≤ 0.25 |
| GYFL | ≤ 0.25 |
| LRFV | ≤ 0.25 |
| AYHK | ≤ 0.25 |
| DWPV | ≤ 0.25 |
| LIKG | ≤ 0.25 |
| HFFQ | ≤ 0.25 |
| NCWV | ≤ 0.25 |
| PPLY | ≤ 0.25 |
| ATLF | 13.9 |
| DVLS | ≤ 0.25 |
| SWPT | ≤ 0.25 |
| MPRL | ≤ 0.25 |
| YTVC | ≤ 0.25 |
| ALAH | 3.82 |
| DKLD | ≤ 0.25 |
| WWTY | ≤ 0.25 |
| EISY | ≤ 0.25 |
| SRKV | ≤ 0.25 |
| YLVS | ≤ 0.25 |
| AMKG | ≤ 0.25 |

| Variant | enrichment ratio |
| --- | --- |
| YMSP | ≤ 0.25 |
| AEER | ≤ 0.25 |
| TFMA | 7.14 |
| TNSE | 5.1 |
| VETP | ≤ 0.25 |
| YVGI | ≤ 0.25 |
| DFPW | ≤ 0.25 |
| VHEL | ≤ 0.25 |
| TWEL | ≤ 0.25 |
| IDVR | ≤ 0.25 |
| HKQV | ≤ 0.25 |
| ECPT | ≤ 0.25 |
| CFYL | ≤ 0.25 |
| EAPC | ≤ 0.25 |
| QGDW | ≤ 0.25 |
| TAIH | ≤ 0.25 |
| ATCW | 11.3 |
| VYDC | ≤ 0.25 |
| SPSF | ≤ 0.25 |
| HKPP | ≤ 0.25 |
| LDDS | ≤ 0.25 |
| FMQY | ≤ 0.25 |
| PSTC | ≤ 0.25 |
| LQCA | ≤ 0.25 |
| DHYK | ≤ 0.25 |

| Variant | enrichment ratio |
| --- | --- |
| VMGF | ≤ 0.25 |
| MTTL | 9.8 |
| LLKI | ≤ 0.25 |
| KWTT | ≤ 0.25 |
| GHIC | ≤ 0.25 |
| LHTS | ≤ 0.25 |
| VLAD | ≤ 0.25 |
| KHKH | ≤ 0.25 |
| RCSC | ≤ 0.25 |
| PNPH | ≤ 0.25 |
| NPFR | ≤ 0.25 |
| QTHA | ≤ 0.25 |
| AETI | 16.8 |
| HSNG | ≤ 0.25 |
| KDIT | ≤ 0.25 |
| KCQF | ≤ 0.25 |
| NHWN | ≤ 0.25 |
| MCWK | ≤ 0.25 |
| LCGP | ≤ 0.25 |
| NKWR | ≤ 0.25 |
| MSHW | ≤ 0.25 |
| DPDL | ≤ 0.25 |
| RHGV | ≤ 0.25 |
| QIQA | ≤ 0.25 |
| PDMH | ≤ 0.25 |

| Variant | enrichment ratio |
| --- | --- |
| LQQG | ≤ 0.25 |
| IYKL | ≤ 0.25 |
| VRFA | ≤ 0.25 |
| NRFM | ≤ 0.25 |
| IFAM | ≤ 0.25 |
| RADC | ≤ 0.25 |
| RDKS | ≤ 0.25 |
| QDTY | ≤ 0.25 |
| GCIA | ≤ 0.25 |
| RNNK | ≤ 0.25 |
| NMSF | ≤ 0.25 |
| FNNQ | ≤ 0.25 |
| LMHP | ≤ 0.25 |
| FFDK | ≤ 0.25 |
| SNKQ | ≤ 0.25 |
| LMHC | ≤ 0.25 |
| WMMG | ≤ 0.25 |
| HAIR | ≤ 0.25 |
| SSPM | 0.954 |
| HDVA | ≤ 0.25 |
| QQFY | 4.21 |
| VHHQ | ≤ 0.25 |
| KCLG | ≤ 0.25 |
| DFMK | ≤ 0.25 |
| SIGY | 14.3 |

| Variant | enrichment ratio |
| --- | --- |
| NYKD | ≤ 0.25 |
| NLYD | ≤ 0.25 |
| IGQV | ≤ 0.25 |
| KRQG | ≤ 0.25 |
| VASN | ≤ 0.25 |
| PAEK | ≤ 0.25 |
| TGNV | 10.1 |
| MRHP | ≤ 0.25 |
| TWKQ | ≤ 0.25 |
| PPRN | ≤ 0.25 |
| LRWH | ≤ 0.25 |
| RTWQ | ≤ 0.25 |
| GPCL | ≤ 0.25 |
| FRAV | ≤ 0.25 |
| LRMD | ≤ 0.25 |
| DTWL | ≤ 0.25 |
| MPDG | ≤ 0.25 |
| QNHL | ≤ 0.25 |
| IADS | ≤ 0.25 |
| TDSL | 2.46 |
